The supplement of paper PMC3334620
Whole data set: some 33,000 sequences, median “E-score (-0.5 to 0.5)” near -0.036, cut for the highest 2% near 0.37. The list shows a part of the results.

biological target: T1, Yer064c (UniProt P40041); assay: PBM E-score (8-mer binding enrichment) (E-score (-0.5 to 0.5)); higher = stronger / more preferred TF binding; most listed sequences are background and not binding sites; conditions: protein concentration: 200 nM; construct: GST-full length
T1 sequence: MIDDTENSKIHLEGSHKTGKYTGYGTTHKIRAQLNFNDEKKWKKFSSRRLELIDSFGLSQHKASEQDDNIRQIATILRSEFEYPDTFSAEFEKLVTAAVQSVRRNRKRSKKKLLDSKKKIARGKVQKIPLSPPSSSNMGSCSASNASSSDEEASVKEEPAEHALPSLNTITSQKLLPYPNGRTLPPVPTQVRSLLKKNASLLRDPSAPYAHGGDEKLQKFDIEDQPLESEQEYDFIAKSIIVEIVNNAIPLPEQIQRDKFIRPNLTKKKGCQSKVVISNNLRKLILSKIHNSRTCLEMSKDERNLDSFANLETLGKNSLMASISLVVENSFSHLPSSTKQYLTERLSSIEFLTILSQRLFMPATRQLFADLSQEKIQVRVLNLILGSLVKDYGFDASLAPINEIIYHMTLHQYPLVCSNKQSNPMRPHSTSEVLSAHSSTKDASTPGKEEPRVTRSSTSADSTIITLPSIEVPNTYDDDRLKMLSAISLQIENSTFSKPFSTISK
Method in brief: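 Bound GST-tagged yeast transcription factors, applied at about 100-200 nM to double-stranded universal all-10-mer Agilent arrays, were detected with fluorescent anti-GST. Scans were normalised with masliner. A modified Wilcoxon-Mann-Whitney statistic, the E-score, was assigned to each ungapped eight-base word pooled with its reverse complement by the Universal PBM Analysis Suite.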

Sequence	PBM E-score
ATTCAGGG	0.0298
CGCATTGA	-0.102
GGTGAAGA	-0.0031
ACTAGCGG	-0.0722
ATCGGACG	-0.34
CAAGGAAA	-0.174
TAGAGTCA	0.469
GTTTTCCA	-0.0642
ATGCTCCC	-0.176
CGCGACTA	0.397
TATGTTAA	0.0376
GGCCCTGA	-0.0566
GACGAGAC	-0.0639
CGCTCTAA	-0.0444
AAAAGACT	0.348
AATGTCAT	-0.0407
ATACAGCA	-0.168
TACTTGGA	0.102
CAGCCGGG	-0.101
GTGACGGA	-0.0635
CGCAGGAC	-0.12
CATATATG	-0.0829
TAGGCTGA	0.162
TAGGGCCA	-0.307
AAAAGTTG	-0.0918

Sequence	PBM E-score
ACCGTCAG	-0.116
CAAACTCA	0.131
CGCCAATC	-0.0392
CCCACTCG	-0.137
ACCTTTCC	-0.182
ATTAGTTC	0.019
CGAGGGGC	-0.383
CTCCAGTC	0.0119
AGTGAGGG	-0.0706
CGGAAACG	-0.19
ACCTTTTG	-0.181
ACGGCATA	-0.0587
ATCCACTC	-0.0532
TCGAGCCA	-0.00283
AACAGTTG	-0.07
ACCCGCCT	-0.07
ATTAGCGC	0.0351
AAGGACTC	0.39
AAACGTAG	-0.143
AAGGAGAG	-0.0501
GCAATTAA	0.126
ATGTTCGG	-0.152
ACGTGATC	0.118
CAAACATA	-0.0526
CTATACTA	0.0579

Sequence	PBM E-score
AGACCAAA	0.0161
CTTCGTAC	-0.0836
GAATCCGA	0.173
GATGTGGA	0.0614
AGGTGAAC	-0.138
ACCTAACT	0.00736
CTACAAAC	-0.0868
ATCATTCC	0.258
GACCCCCA	-0.224
CCTCAACG	-0.208
AAGCACAA	0.0149
CAGCATTA	-0.073
CTAGCCAG	0.0467
AATCTCGC	0.191
AACTTTTG	0.0289
GGCTATAC	-0.0855
AAAGCTAA	-0.0277
GGACCTGA	0.085
ATGCAGGG	-0.177
AGGTCCGC	-0.383
CGATCGCA	-0.145
CGCTGGGC	-0.101
ACAAATAA	0.0193
CCACTCGC	-0.165
CAGTCGGG	0.0747

Sequence	PBM E-score
TACGCACA	-0.0753
AGTAATCA	0.415
ATCCGTTA	0.0301
AGGATGCA	-0.278
ACGTCCTA	-0.223
GAACGCAC	-0.259
CAAAGACA	0.0678
TATTCGGA	0.0216
TGGGCGAA	0.0204
CGACCGAC	-0.0858
GAACCGGA	-0.203
CCTGGTTA	0.138
ATATCCGG	-0.0101
ACAAATTG	-0.0454
TCTCAGCA	-0.0656
GTACGCGA	0.0303
GCTATCAC	-0.156
TGGCCACA	-0.0441
ACGCACTC	-0.0196
AAACTTGA	0.0954
AGTAGCAT	-0.0837
AAGACTCA	0.48
AGTTGCAA	0.0093
GCCCCCCA	-0.203
ATGCTGCA	-0.224

Sequence	PBM E-score
ACTTTTCT	0.0949
GCTACAGC	-0.105
CACACAAC	-0.0138
ACTGCCGA	-0.0796
AAACAGTT	-0.031
GATTGGCC	-0.0787
AATAATGG	-0.0327
TAACTAGA	0.0826
TGTAAGAA	0.0347
CAATCACG	0.296
ATAAACAG	0.0432
GGTAGATA	-0.191
CGGTTATC	-0.198
ACTGAATA	0.239
AACCCGCT	-0.234
CTTAGGTA	0.0257
TCCGGCAA	-0.0552
CGAGGTAA	0.0334
AGAGACCA	-0.0405
AACGACTA	0.393
ATGATACA	0.246
GGCGTAAC	-0.294
AAATACTT	0.117
ACATACGC	-0.0985
CTATGGGA	-0.0985

Sequence	PBM E-score
AAGTGCCC	-0.257
ACCTTTCA	-0.167
GACGATCC	-0.126
ACGCGGCG	-0.184
GTCCTAGA	0.0117
AAACCATG	0.128
TGACGTCA	0.00032
GAACTACC	-0.0642
AGAACAGC	-0.2
ATCATAGC	0.316
CTGCTGAC	0.256
CTAATCTA	0.221
GAACACGC	-0.019
ACGCTCAC	0.0311
GTCAGATA	0.188
GATACAGC	-0.0633
CTGATTGC	0.274
TCTTAAGA	0.189
CTCGGAGA	0.0175
AAATCGGG	-0.0343
ATATCTAA	0.128
CTCCAATC	0.0466
ATATTGTC	-0.195
GCCCAACC	-0.245
CAGACACG	-0.14

Sequence	PBM E-score
ATGCTAAG	-0.135
AACGTGTG	0.0865
AAGAGCCT	-0.168
CGCAAAAC	0.0772
ACTGCACT	0.169
CACGAATG	0.113
CATGACCG	0.0801
CTTGAGAC	0.156
ATAGGTAA	-0.0817
ACGCCTTC	-0.319
AGACCTCT	-0.108
AGACAGCT	-0.0975
AGTTAATA	0.252
GCACCCGC	-0.102
CTCACCGC	0.174
CGAATCGC	0.0546
AGGGTGAT	0.272
ATCCTGCG	0.00116
TCCTTCCA	0.0717
CATTATTC	-0.0506
GGGAAGAA	-0.131
ATAGGTCG	-0.0203
ACACAAGG	0.00037
ACTGCACA	-0.00816
CATCGTCG	0.0247

Sequence	PBM E-score
ATGCCCAT	-0.131
CGAAGACC	0.0326
CTTTGAGC	-0.039
ATCCCCGG	-0.377
CTCTTAAG	-0.00812
AGTCGCCA	0.356
GTATTCAC	0.119
TCTCGTAA	0.188
CCCAGTCG	-0.0798
ATGCTACG	-0.0498
AAACGTAC	-0.0731
GTTCTGCA	-0.117
ATACGTAG	0.0473
AATTTCTG	-0.0692
GAGCATAA	-0.112
AAATTTAA	0.259
CCGTGCTA	-0.257
ACTCAGCC	0.335
ACGAGCTG	-0.0932
CCATAGGC	-0.241
CTTCTGAC	0.168
CAAGCGCA	-0.164
ATCACAGG	0.166
ACATGAAC	-0.0583
TGCTCCAA	0.0428

Sequence	PBM E-score
CCACCAAC	-0.094
TAAAGACA	-0.0439
GAATGCTC	-0.18
CGCCTCTC	-0.392
CAGGCTGA	0.274
CTCATAAC	0.052
ATGACAAT	0.0317
ACCGGCGT	-0.0397
ATGAATGC	-0.0117
TCGCTACA	-0.0848
ACATAACG	-0.0744
CCTTTATA	-0.0483
CCCCGTGC	-0.28
CGCGTACC	-0.134
TACGACAA	0.0113
CTACAGTC	0.247
GTGCGAAC	-0.0299
AGCCTTTA	-0.0522
ATCGCGGA	-0.0108
